# The other results are listed elsewhere or left out.
# Test system: T1, Caupolican (Caup) homeodomain DNA-binding domain
# T1 sequence: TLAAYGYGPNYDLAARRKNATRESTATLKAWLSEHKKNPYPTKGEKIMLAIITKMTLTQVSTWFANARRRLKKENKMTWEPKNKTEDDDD
# Experiment: PBM E-score (8-mer, recovered from the published 9-mer minima) (E-score (dimensionless, -0.5 to 0.5)); Drosophila protein; higher = stronger relative binding preference, active = 0.31 or more
# Summary of the method: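 An enrichment score, with higher meaning stronger, expresses relative binding preference for each short DNA word. The protein used was Caup's homeodomain DNA-binding domain (residues 214-303), produced by in vitro transcription and translation and tested at 100 nM on custom-designed protein binding microarrays. The 8-mer values were recovered from published 9-mer scores, each equal to the lower of its two constituent 8-mer scores.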
row,Sequence,PBM E-score
1,GCTTCCTA,inactive: -0.0332
2,AACAAACG,inactive: 0.114
3,AGTCTGGA,inactive: 0.0279
4,CCTCGATA,inactive: 0.0341
5,ACGCACAA,inactive: 0.0343
6,AGTCAAAG,inactive: -0.0591
7,AATGAAGG,inactive: -0.0484
8,GACTGCCA,inactive: -0.0551
9,GCCGCCCA,inactive: -0.275
10,ACGTGCCC,inactive: -0.083
11,GGCTTTCA,inactive: -0.0986
12,CGTTGGAG,inactive: -0.106
13,GTTTCACA,inactive: 0.103
14,CGGATTAC,inactive: 0.11
15,CACGCCTA,inactive: -0.0375
16,CCTAGAGC,inactive: -0.14
17,CAGATTTC,inactive: -0.0366
18,GGGGATAC,inactive: -0.108
19,CAAGTCAC,inactive: 0.0842
20,GAGCACCC,inactive: -0.226
21,ACAGTTTA,inactive: 0.115
22,CGCAACGC,inactive: -0.111
23,GCGCACAC,inactive: -0.105

row,Sequence,PBM E-score
1,TACGGATA,inactive: 0.0883
2,AGCATAAC,inactive: 0.0955
3,GCTCGGTA,inactive: -0.0505
4,GTCAGGGA,inactive: -0.0842
5,ATGTTCGA,active: 0.34
6,ATTGACTC,inactive: 0.041
7,ATTCTACC,inactive: 0.13
8,GATGACCA,inactive: 0.0255
9,CACATATC,inactive: 0.277
10,ATCTGAGA,inactive: 0.0115
11,CAAAATAA,inactive: 0.0715
12,AGATACGC,inactive: -0.121
13,ACGTCCTC,inactive: -0.138
14,ACATGTGA,active: 0.312
15,CTGTTGAC,inactive: 0.137
16,CAGGGTGG,inactive: -0.12
17,ACTTTATA,inactive: 0.0789
18,ATACAAGC,active: 0.316
19,CGACTGGC,inactive: -0.168
20,CGACCTAG,inactive: -0.0323
21,AATACACC,inactive: 0.292
22,AGACTTCC,inactive: -0.148
23,AGGAATGG,inactive: 0.0254

row,Sequence,PBM E-score
1,GATCATAC,inactive: 0.142
2,ACCGCAAG,inactive: -0.162
3,CTTTGTCA,inactive: 0.0793
4,GCCCCAAA,inactive: -0.158
5,GGCAGACA,inactive: -0.0528
6,TCGCTTCA,inactive: -0.083
7,ATAACGTC,inactive: 0.0839
8,GCTTGAAA,inactive: -0.00961
9,GCGCTTCC,inactive: -0.169
10,CATTCTCC,inactive: 0.0295
11,AGCTACGA,inactive: -0.0245
12,TCCATCCA,inactive: 0.102
13,TCCTTCAA,inactive: -0.0696
14,ACGATGTG,inactive: 0.2
15,GTCGCTCA,inactive: 0.0271
16,AAGGCGGG,inactive: -0.214
17,CTCAGCCC,inactive: -0.18
18,AGATCTGA,inactive: 0.0307
19,TCTGTACA,inactive: 0.281
20,CCTAGTCC,inactive: -0.0964
21,CGCGTGTA,inactive: 0.285
22,ACGCGTCG,inactive: 0.014
23,CGATTTTC,inactive: -0.00776

row,Sequence,PBM E-score
1,AAACGACA,inactive: 0.27
2,CCTCTGCG,inactive: -0.256
3,AGTATTGA,inactive: 0.13
4,ACGTAAAG,inactive: 0.129
5,ACAGGACT,inactive: 0.0647
6,AAGATGGT,inactive: 0.109
7,GATAGATA,inactive: 0.08
8,GATCAGGA,inactive: -0.0452
9,TGTGAAAA,inactive: 0.058
10,AAGGAACT,inactive: 0.0172
11,ACATATAG,inactive: 0.256
12,CTCCACCC,inactive: -0.208
13,GATTGCAC,inactive: 0.0881
14,CGAATTGA,inactive: 0.0175
15,ATCGAGAG,inactive: -0.099
16,AGTGAGCA,inactive: 0.0293
17,TATCATAA,inactive: 0.216
18,CGAACCGC,inactive: -0.165
19,CGACGCGC,inactive: -0.116
20,GACGCGCA,inactive: -0.0964
21,AATGACGC,inactive: 0.0746
22,CGAGGCGC,inactive: -0.252
23,AACACCGG,inactive: 0.0729

row,Sequence,PBM E-score
1,AACCGGGG,inactive: -0.215
2,AGGGGTAA,inactive: -0.0827
3,CCTGTAGC,inactive: 0.0876
4,GCCTTAAC,inactive: -0.0115
5,CTCTGGGC,inactive: -0.214
6,ACCCTACC,inactive: -0.0635
7,TACGATGA,inactive: 0.0856
8,AGAGCGTA,inactive: -0.00417
9,CTTGTGCA,inactive: 0.18
10,CGTTGCAC,inactive: -0.0617
11,GATATCAC,inactive: 0.142
12,CGCACCGA,inactive: -0.0712
13,AATTCGAC,inactive: -0.0112
14,ACAGTTCG,inactive: 0.0719
15,CCGTTTCG,inactive: -0.0696
16,CCACTGAC,inactive: -0.103
17,TGGACAAA,inactive: 0.137
18,AATCAGAA,inactive: 0.0342
19,GGACTGAC,inactive: -0.065
20,AATTTGAG,inactive: 0.0364

# From the supplement of paper PMC3724861
